PubChem BioAssay AID360 (National Center for Advancing Translational Sciences (NCATS), 2006)
Among all 48,000 compounds or so, about 550 (1.1%) were called active. About 4% were inconclusive and are not listed. Rule as the data show it: active = potency below about 15 µM; inconclusive = mostly about 16 µM to 33 µM; inactive = weaker than that. This is one part of the list.

What follows are compounds tested against Lysosomal acid glucosylceramidase (Homo sapiens) (UniProt P04062) (assay: Glucocerebrosidase). Conditions: purified enzyme, resorufin glucoside fluorescence (screen aimed at inhibitors), 20 min.
UniProt P04062, sequence (P04062 whole entry, looked up): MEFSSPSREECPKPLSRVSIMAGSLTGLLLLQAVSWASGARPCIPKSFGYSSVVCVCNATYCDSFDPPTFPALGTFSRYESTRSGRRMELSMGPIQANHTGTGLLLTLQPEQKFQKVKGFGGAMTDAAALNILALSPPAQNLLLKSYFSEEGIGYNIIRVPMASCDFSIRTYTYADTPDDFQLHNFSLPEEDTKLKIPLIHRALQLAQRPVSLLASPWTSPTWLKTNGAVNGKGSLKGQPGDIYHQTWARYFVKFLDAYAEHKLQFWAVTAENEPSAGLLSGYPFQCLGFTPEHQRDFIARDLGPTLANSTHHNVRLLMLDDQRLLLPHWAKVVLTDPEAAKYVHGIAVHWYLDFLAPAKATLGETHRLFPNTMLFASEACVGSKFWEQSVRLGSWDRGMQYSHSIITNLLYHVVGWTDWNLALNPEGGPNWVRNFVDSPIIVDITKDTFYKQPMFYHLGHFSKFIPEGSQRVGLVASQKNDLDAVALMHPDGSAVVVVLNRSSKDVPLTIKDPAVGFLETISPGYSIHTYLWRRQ
Method in brief: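 Normal human glucocerebrosidase (0.2 nM final) was assayed with resorufin β-D-glucopyranoside (30 uM final) in 50mM citric acid/KH2PO4, 10mM sodium taurocholate, 0.01% tween-20, pH 5.9. Compounds were titrated; fluorescence (Ex 548, Em 600) read after 20 min at RT.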
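Also: the screen sought inhibitors.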
Potency is read from the fitted curve at half-maximal effect.

Potency, inactive:
CC(C)NC(=O)NC(=O)COC(=O)Cc1ccsc1 > 76.9 µM
Cc1ccccc1Cn1c(=N)n(CC(=O)c2ccco2)c2ccccc21 > 76.9 µM
CCOC(=O)COc1ccc(S(=O)(=O)NCCC2=CCCCC2)cc1 > 76.9 µM
COc1ccccc1N1CCN(C(=O)CSc2nc(-c3ccccc3)cc(=O)[nH]2)CC1 > 76.9 µM
O=C(Nc1ccccc1C(F)(F)F)N1CCCC(O)C1 (stereo not given) > 76.9 µM
O=C(CSc1nc2ccccc2[nH]1)N1CCN(c2ccc(F)cc2)CC1 > 76.9 µM
CCCn1c(NCc2ccc(C)o2)nc2ccccc21 > 76.9 µM
COCCNC(=O)C1CC(=O)N(C2CCCCC2)C1 (stereo not given) > 76.9 µM
CCc1nc(NCC2CCCO2)c2oc3ccccc3c2n1 (stereo not given) > 76.9 µM
COc1ccc(S(=O)(=O)N(C)CC(=O)Nc2ccc3c(c2)OCCO3)cc1OC > 76.9 µM
O=C(NCCCN1CCCCC1)C1CCC(=O)N1CCc1ccccc1 (stereo not given) > 76.9 µM
O=[n+]1cc(-c2cc3ccccc3o2)n([O-])c2c1CCCC2 > 76.9 µM
CCOC(=O)Cc1csc(NC(=O)CCNS(=O)(=O)c2ccc3c(c2)CCC(=O)N3)n1 > 76.9 µM
CCSc1nnc(NC(=O)c2csc3c2CCCC3)s1 > 76.9 µM
O=C(NCc1ccccn1)c1cc(-c2ccccc2)on1 > 76.9 µM
Cc1cc(C(=O)Nc2ccc3c(c2)OCCO3)c(C)o1 > 76.9 µM
O=C(NCCCNC(=O)c1ccccn1)c1ccccn1 > 76.9 µM
O=C(c1cccc(Cl)c1)N(Cc1cccs1)C1CCS(=O)(=O)C1 (stereo not given) > 76.9 µM
CCCn1c(=O)c2ccccc2n2c(SCCOc3ccccc3F)nnc12 > 76.9 µM
COc1cc2nc(CC(C)C)n(NC(=O)c3ccccc3)c(=O)c2cc1OC > 76.9 µM
CC(=O)NC(O)C(=O)c1ccco1 (stereo not given) > 76.9 µM
Cn1c(N2CCCC2)nc2c1c(=O)n(Cc1cccc(F)c1)c(=O)n2C > 76.9 µM
COc1cc(NC(=O)Nc2cccc(Cl)c2)c(OC)cc1NC(=O)CN1CCCCC1 > 76.9 µM
O=C(Cn1ncc2c(=O)oc3ccccc3c21)N1CCCc2ccccc21 > 76.9 µM
CCN(CC)S(=O)(=O)c1cccc(-c2nnc(SCCOc3ccccc3)o2)c1 > 76.9 µM
O=C(CSc1nccn1-c1ccccc1)Nc1ccc2c(c1)OCO2 > 76.9 µM
COc1ccc(N2CCN(C(=O)CSc3nnc(-c4cc5ccccc5cc4O)n3C)CC2)cc1 > 76.9 µM
Cc1cc(NC(=O)NC(=O)c2ccc(F)cc2F)n[nH]1 > 76.9 µM
CCc1c(O)nc(SCC(=O)N2CCOCC2)n(-c2ccccc2)c1=O > 76.9 µM
CCN1CCN(CCCNC(=O)c2cn(CCOC)c(=O)c3c2c2ccccc2n3C)CC1 > 76.9 µM
COCc1nnc(NC(=O)CSc2ccccc2)s1 > 76.9 µM
CC(=O)Nc1ccc(C(=O)Nc2ccc3c(c2)OCO3)cc1
CS(=O)(=O)N(CC(=O)N1CCN(Cc2ccccc2)CC1)Cc1ccccc1 > 76.9 µM
COC(=O)c1cccc(NC(=O)CSc2nnc(COc3cccc(C)c3)n2C)c1 > 76.9 µM
Fc1ccc(-n2c(-c3ccco3)nc3nc4ccccc4nc32)cc1 > 76.9 µM
C=CCNC(=O)CCNS(=O)(=O)c1ccc(Br)cc1 > 76.9 µM
O=C(CSCc1cnn(-c2ccccc2)c1-n1cccc1)NCc1ccc2c(c1)OCO2 > 76.9 µM
Cn1c(NCc2cccs2)nc2ccccc21 > 76.9 µM
CCOC(=O)c1oc2ccccc2c1CSc1nnc(-c2ccco2)o1 > 76.9 µM
O=C(c1ccc(Cl)cc1Cl)C1(n2cncn2)Oc2ccccc2C1O (stereo not given) > 76.9 µM
Cn1cccc1Cc1nnc(SCC(=O)NCc2ccco2)n1-c1ccc(F)cc1 > 76.9 µM
Cc1ccc2c(c1)cc(CN(CCc1ccccc1)C(=O)N1CCOCC1)c1nnnn12 > 76.9 µM
O=C(COc1ccccc1)Nc1ccccc1C(=O)NCc1ccco1 > 76.9 µM
O=C(CSc1nnc(Cc2cccs2)n1-c1ccccc1)NCc1ccc2c(c1)OCO2 > 76.9 µM
O=C1CC(c2ccccc2)CC(O)=C1C=NCCN1CCN(C(=O)Nc2ccccc2)CC1 (stereo not given) > 76.9 µM
CC1=NC(C)Cc2ccccc21 (stereo not given) > 76.9 µM
CCc1nnc(NC(=O)CCN2C(=O)c3ccccc3C2=O)s1 > 76.9 µM
CCCCn1nnnc1SCC(=O)Nc1ccc(F)cc1 > 76.9 µM
CCOC(=O)C1CCN(c2ncnc3c2oc2ccc(Br)cc23)CC1
COC(=O)CNC(=O)Cn1ccc2ccccc2c1=O > 76.9 µM
Cc1ccc(Cn2cnc3c(nnn3Cc3ccc(Cl)cc3)c2=O)cc1 > 76.9 µM
c1ccc(N2CCN(c3nc4ccccc4n4nnnc34)CC2)cc1 > 76.9 µM
O/N=C1/C2C3CC4C5C3C1C5C1(OCCO1)C42 (stereo not given) > 76.9 µM
C=CC(O)(C#CCN(CC)CC)c1ccccc1 (stereo not given) > 76.9 µM
Cc1ccc(CNC(=O)C2CCC(=O)N2C2CCCCC2)cc1 (stereo not given) > 76.9 µM
CC1CCc2c(nc3ncnn3c2N2CCN(c3ccccc3)CC2)C1 (stereo not given) > 76.9 µM
O/N=C1/CCc2nonc2/C1=N/O > 76.9 µM
CCOc1ccc(NCC(=O)Nc2ccc(C)cc2C)cc1 > 76.9 µM
Cc1cc2nnc(SCc3ccccc3)n2c(N)n1 > 76.9 µM
Cc1[nH]c2ccccc2c1C(=O)CN1CCSCC1 > 76.9 µM
